In PMC4336329 (PLoS ONE, 2015):
About 14,000 (4.5%) of roughly 310,000 compounds showed an effect of 50% or more. The effect is printed as a negative number. The list shows a part of the results.

target: human ether-à-go-go-related gene (hERG) potassium channel (human, UniProt Q12809); assay: primary screen, population patch clamp on CHO cells stably expressing hERG
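Note: peak tail current of the secondary pulse compared with the same well before compound.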

Sequence of human ether-à-go-go-related gene (hERG) potassium channel (Q12809 whole entry, looked up): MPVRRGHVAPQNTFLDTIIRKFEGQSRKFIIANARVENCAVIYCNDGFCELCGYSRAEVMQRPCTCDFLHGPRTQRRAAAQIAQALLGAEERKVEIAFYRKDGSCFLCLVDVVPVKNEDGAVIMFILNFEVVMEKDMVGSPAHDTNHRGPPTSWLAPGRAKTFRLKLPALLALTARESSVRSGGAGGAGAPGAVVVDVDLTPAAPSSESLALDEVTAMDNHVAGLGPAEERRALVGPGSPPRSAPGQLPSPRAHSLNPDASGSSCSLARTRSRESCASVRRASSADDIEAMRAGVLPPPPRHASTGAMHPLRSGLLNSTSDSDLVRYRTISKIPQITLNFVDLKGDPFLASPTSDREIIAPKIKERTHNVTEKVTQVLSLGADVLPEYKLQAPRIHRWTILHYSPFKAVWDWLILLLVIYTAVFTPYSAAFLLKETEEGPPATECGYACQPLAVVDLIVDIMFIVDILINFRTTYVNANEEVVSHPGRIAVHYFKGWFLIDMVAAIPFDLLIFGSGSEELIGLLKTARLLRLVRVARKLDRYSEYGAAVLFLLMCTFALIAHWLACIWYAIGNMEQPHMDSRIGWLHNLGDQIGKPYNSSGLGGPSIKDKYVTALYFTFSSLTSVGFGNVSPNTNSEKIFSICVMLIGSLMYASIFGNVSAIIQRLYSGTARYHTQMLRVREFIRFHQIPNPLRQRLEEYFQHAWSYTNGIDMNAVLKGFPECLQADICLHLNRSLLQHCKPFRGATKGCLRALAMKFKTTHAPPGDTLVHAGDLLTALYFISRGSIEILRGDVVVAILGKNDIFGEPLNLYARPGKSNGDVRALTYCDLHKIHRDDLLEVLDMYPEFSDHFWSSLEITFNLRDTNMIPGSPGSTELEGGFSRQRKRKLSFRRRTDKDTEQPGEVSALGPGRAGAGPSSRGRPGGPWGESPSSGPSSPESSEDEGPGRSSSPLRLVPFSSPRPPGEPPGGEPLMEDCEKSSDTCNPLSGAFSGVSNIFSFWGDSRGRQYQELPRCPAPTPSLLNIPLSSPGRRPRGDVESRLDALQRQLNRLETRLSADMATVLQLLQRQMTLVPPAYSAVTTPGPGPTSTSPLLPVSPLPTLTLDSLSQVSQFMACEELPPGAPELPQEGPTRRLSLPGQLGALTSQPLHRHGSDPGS

Row | SMILES | hERG current change (%, negative = inhibition) at 10uM
1 | O=C(Nc1cccc(F)c1)N1CCN(C(=O)c2ccco2)CC1 | -10.4%
2 | Cc1noc(NS(=O)(=O)c2ccc(NC(=O)C34CC5CC(C3)CC(n3cnc(Cl)n3)(C5)C4)cc2)c1C | -10.4%
3 | CCn1cc(C(=O)NCc2ccc3c(c2)OCO3)c(=O)c2cc(F)c(N3CCN(C)CC3)cc21 | -37.2%
4 | CCC(OC(=O)c1nsc(Cl)c1Cl)C(=O)NC(C)(C)C (centres unmarked) | 14.1%
5 | O=C(CN1CCN(S(=O)(=O)/C=C/c2ccccc2)CC1)Nc1ccccc1N1CCOCC1 | -42.4%
6 | O=c1[nH]c2cccnc2n1-c1cccc([N+](=O)[O-])c1 | 4.58%
7 | CN(CCOc1ccccc1)C(=O)CNC(=O)c1ccc(C(C)(C)C)cc1 | -33.9%
8 | COc1cccc(NC(=O)CN(C)C(=O)c2ccc(NC3CC3)c([N+](=O)[O-])c2)c1 | -73.4%
9 | O=C(NCC(=O)N1CCCC(C(F)(F)F)C1)c1ccccc1F (centres unmarked) | 8.85%
10 | Cc1cc(-c2ccccc2)n2nc(N)nc2n1 | 8.73%
11 | CS(=O)(=O)N1CCCC(C(=O)NCc2ccccn2)C1 (centres unmarked) | 0.263%
12 | CCOC(=O)c1cccc(NC(=O)CSc2nnnn2C)c1 | 7.1%
13 | CCOC(=O)C1=NN(c2ccc(Cl)cc2)C(=O)C1 | 15.1%
14 | O=S(=O)(c1ccc(F)c(F)c1F)N1CCN(C(=S)Nc2ccccc2)CC1 | -1.14%
15 | O=C1[C@@H]2C(c3ccc(F)cc3)=NO[C@@H]2C(=O)N1Cc1ccccc1 | 13%
16 | O=c1[nH]c(=O)n(-c2ccc(Br)cc2)c(O)c1C=NC(CO)(CO)CO | 4.25%
17 | CCn1c(-c2ccc(C(C)(C)C)cc2)n[nH]c1=S | 13.7%
18 | Cc1cccc(-c2cnn(-c3ccccc3)c2N)c1 | 11.2%
19 | Cc1sc(N2C(=O)C3C(C2=O)[C@H]2C=C[C@@H]3C2)c(C#N)c1C (some centres unmarked) | 0.8%
20 | Cc1cccc(N2C(=O)c3cccc4c(N)ccc(c34)C2=O)c1 | 0.393%
21 | Cc1nc2cc(C(=O)OCC(=O)NC(C)C(C)C)ccc2n1-c1ccccc1 (centres unmarked) | -24.9%
22 | COc1ccc(C(=O)NCC(=O)OCC(=O)c2ccc3c(c2)NC(=O)CO3)cc1 | -65.1%

Row | SMILES | hERG current change (%, negative = inhibition) at 10uM
23 | O=C(CSc1nnc(CNC(=O)c2ccco2)o1)Nc1cccc(C(F)(F)F)c1 | -48.3%
24 | COc1ccc(NC(=O)COc2ccc(/C=C/c3cccc[n+]3C)cc2OC)cc1.[I-] | 10.6%
25 | COc1ccccc1CC(=O)N(Cc1ccccc1)c1cccc(C)c1 | -2.79%
26 | COc1ccc(NC(=O)CS(=O)CC(=O)NCC2OCCc3ccccc32)cc1 (centres unmarked) | 16.2%
27 | Cc1nc2ccccc2c(=O)n1CCCn1ccnc1 | -17%
28 | CCOC(=O)N1CCN(C(=O)CS(=O)Cc2nc(-c3ccc(OC)c(OC)c3)oc2C)CC1 (centres unmarked) | 2.5%
29 | CC(C)(C)c1ccc(OC(=O)c2cccnc2)cc1 | -7.01%
30 | Cc1cc(NCc2ccco2)n2ncnc2n1 | 4.39%
31 | COC(=O)C1=C(C)N(c2cccc(OC)c2)C(=O)/C1=C\c1ccco1 | -26.5%
32 | COC(=O)/C=C/C(=O)NCc1ccco1 | 10%
33 | COC(=O)COc1ccc(S(=O)(=O)Nc2ccc3c(c2)OCO3)cc1Cl | -1.46%
34 | COc1ccccc1C(=O)NNC(=O)c1sccc1-n1cccc1 | 28.5%
35 | COC(=O)C(C(=O)OC)=C(/C=C/C=C/N(C)C)N(C)C | 13.9%
36 | CCOc1ccc(CNC(c2ccccc2)c2ccccc2)cc1.Cl | 1.68%
37 | CC1c2nc3ccccc3n2C(CC(=O)NCCCN2CCOCC2)C(=O)N1Cc1ccccc1 (centres unmarked) | -5.92%
38 | COc1cc(CNc2ccc(N3CCOCC3)cc2)ccc1OCC(=O)NC(C)(C)C | 14.6%
39 | CC(=O)NC1(C(F)(F)F)NC(=O)N(CCc2ccccc2)C1=O (centres unmarked) | -3.4%
40 | CCCS(=O)(=O)c1nc(S(=O)(=O)c2ccc(C)cc2)c(N2CCC(O)CC2)s1 | -16.4%
41 | COC(=O)C1=C(C)N(CCCC(=O)O)C(=O)NC1c1cccc(Cl)c1Cl (centres unmarked) | 0.17%
42 | CCn1c(CSc2nc(C)cc(C)n2)nnc1SCC(=O)Nc1cccc2ccccc12 | -4.98%
43 | CCOC(=O)C1CCN(c2cc(C)nc3ccc(OC)cc23)CC1 | -73.8%
44 | O=[N+]([O-])c1ccc(S(=O)(=O)NCCS(=O)(=O)N2CCN(c3ccccc3)CC2)cc1 | -24.8%

Row | SMILES | hERG current change (%, negative = inhibition) at 10uM
45 | CC(C)Oc1ccc(S(=O)(=O)N2CCOCC2)cc1NC(=O)c1ccc(N2CCCC2=O)cc1 | 2.04%
46 | O=c1cc(CN2CCN(Cc3ccccc3)CC2)c2cc(O)ccc2o1 | -68.2%
47 | COc1ccc(C)cc1NC(=O)CC(O)(C(F)(F)F)C(F)(F)F | 1.84%
48 | COCCOC(=O)C1=C(C)NC2=C(C(=O)CC(c3cccs3)C2)C1c1ccsc1 (centres unmarked) | 5.12%
49 | COCC(=O)N(C)CC1CCCN(CCc2ccccc2OC)C1 (centres unmarked) | 7.26%
50 | Nc1sc(-c2ccccc2)n[n+]1Cc1cccc2cccnc12.[Br-] | -66.7%
51 | Nn1c(SCC(=O)Nc2c(Cl)cccc2Cl)nncc1=O | -1.53%
52 | O=C(Nc1ccc(Cl)c(C(F)(F)F)c1)[C@@H]1CC=C[C@@H]2CCN(Cc3ccccc3)C(=O)[C@@H]21 | -15.6%
53 | Cc1cc(C)n(CC(=O)NC2C(=O)N3C(C(=O)O)=C(CSc4nnc(C)s4)CSC23)n1 (centres unmarked) | 17.9%
54 | COc1ccc(-n2c(SCC(=O)Nc3nccs3)nnc2-c2ccoc2C)cc1 | -80%
55 | CCOc1ccccc1C(=O)N(C)Cc1cc2cc(OC)ccc2[nH]c1=O | -17.1%
56 | N#CC1=C(N)C2=CCCC[C@H]2[C@H](c2ccc(Br)cc2)C1(C#N)C#N | -4.86%
57 | Oc1nc(Nc2ccc(Cl)cc2Cl)sc1/C=C1\C=Nc2ccccc21 | 9.08%
58 | O=C1CC(N2CCN(c3ccccn3)CC2)C(=O)N1CC(c1ccccc1)c1ccccc1 (centres unmarked) | -64%
59 | COc1ccc(OCc2cc(C(=O)N3CCSCC3)no2)c(Cl)c1 | -9.25%
60 | COc1ccc2c(=O)c(C(=O)O)c(-c3ccc4c(c3)OCO4)n(C)c2c1 | 17.2%
61 | Cc1cc(C)n2nc(SCC(=O)Nc3c(C)n(C)n(-c4ccccc4)c3=O)nc2n1 | 1.69%
62 | O=C(COc1ccc2c(c1)oc(=O)c1ccccc12)NCCN1CCOCC1 | -11%
63 | COC(=O)C1=NNC2C(=O)N(C3CCCCC3)C(=O)C12 (centres unmarked) | -1.72%
64 | CCCOc1ccc(-c2c(C(=O)N/N=C/c3cccs3)nnn2-c2nonc2N)cc1 | 19.3%
65 | c1ccc(Cn2nnc(CNc3ccccc3)c2-c2c(CNc3ccccc3)nnn2Cc2ccccc2)cc1 | 6.62%
66 | O=C(c1ccc2ccccc2c1)C1CCCN(C(=O)c2cnccn2)C1 (centres unmarked) | -31.2%

Row | SMILES | hERG current change (%, negative = inhibition) at 10uM
67 | C=CCn1c(C)c(C(C)=O)c(SC)nc1=S | -5.54%
68 | O=C(NC1CCCC1)C(c1ccncc1)N(C(=O)c1csnn1)C1CCCC1 (centres unmarked) | -2.05%
69 | CCOc1cc(C(c2c(C)[nH][nH]c2=O)c2c(C)[nH][nH]c2=O)ccc1O | 2.19%
70 | NS(=O)(=O)c1ccc(CCNC(=O)CNCCc2ccccc2)cc1 | 16.2%
71 | COc1ccccc1N1CCN(C(=O)C2CCN(S(=O)(=O)c3ccccc3)CC2)CC1 | -15.3%
72 | N/C(=N\OC(=O)c1cc(-c2ccccc2)nc2ccccc12)c1ccccn1 | 13.6%
73 | O=C(c1ccco1)N1CCN(S(=O)(=O)c2c(Cl)cccc2Cl)CC1 | -20.9%
74 | CCCCCOC(=O)Cn1c(N2CCCCCC2)nc2c1c(=O)[nH]c(=O)n2C | -5.81%
75 | COCCN(CCOC)S(=O)(=O)c1ccc(C(=O)Nc2ccncc2)cc1 | -11.6%
76 | O=C(COc1ccc(=O)n(-c2ccccc2)n1)Nc1ccccc1 | -1.87%
77 | COc1cc2c(cc1OC)CN(S(=O)(=O)c1cccs1)CC2 | -17.6%
78 | c1ccc(-c2nnc(SCc3nc4ccccc4[nH]3)n2Cc2ccco2)nc1 | -8.18%
79 | N#Cc1c(C(F)(F)F)cc(-c2ccc(F)cc2)[nH]c1=O | 33.1%
80 | CC(C)c1cc(CNC(=O)CCc2nnc(CCCCc3ccccc3)o2)on1 | 4.23%
81 | C=C(C)CSc1nc(N)c2c3c(sc2n1)CCC3 | -5.7%
82 | COc1ccccc1N1C(=O)C2C3C=CC(CC3)C2C1=O (centres unmarked) | 7.75%
83 | COC(=O)c1ccc(/C=C2\N=C(SC)SC2=O)cc1 | 9.47%
84 | CC(C)CN(C(=O)CSc1nnc(C2CC2)n1-c1ccccc1)C1CCS(=O)(=O)C1 (centres unmarked) | -0.403%
85 | CCCS(=O)(=O)Nc1c(C(=O)O)[nH]c2ccccc12 | 12%
86 | O=S(=O)(/C(=C/c1ccc(C(F)(F)F)cc1)c1nc2ccccc2[nH]1)c1ccccc1 | -4.01%
